From the supplement of paper PMC3334620
Over roughly 33,000 sequences, “E-score (-0.5 to 0.5)” has its median near -0.017; the highest 2% begin near 0.3. The list shows a part of the results.

target: T1, Sut1 (UniProt P53032); assay: PBM E-score (8-mer binding enrichment) (E-score (-0.5 to 0.5)); higher = stronger / more preferred TF binding; most listed sequences are background and not binding sites; conditions: protein concentration: 200 nM; construct: GST-full length
T1 sequence: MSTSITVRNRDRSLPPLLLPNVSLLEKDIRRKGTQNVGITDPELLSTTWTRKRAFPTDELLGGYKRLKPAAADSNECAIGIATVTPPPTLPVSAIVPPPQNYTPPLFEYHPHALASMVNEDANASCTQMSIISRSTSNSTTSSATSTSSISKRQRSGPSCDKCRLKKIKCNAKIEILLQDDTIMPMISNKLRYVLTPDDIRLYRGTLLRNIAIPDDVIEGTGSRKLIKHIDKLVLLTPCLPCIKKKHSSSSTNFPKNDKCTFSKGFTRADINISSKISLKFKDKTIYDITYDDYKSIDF
Outline: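 Full-length yeast transcription factors or their DNA-binding domains, GST-tagged and expressed with PURExpress, were applied at about 100-200 nM to universal all-10-mer Agilent arrays. These arrays had been made double-stranded by primer extension on fresh or once-stripped slides. Detection used fluorescent anti-GST, normalisation used masliner, and E-scores for ungapped eight-base words pooled with reverse complements came from the Universal PBM Analysis Suite.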

Compared with CCAAATTC, CCCATAGC is lower in “PBM E-score” value: -0.0238 for the first, -0.202 for the second.

Going from ATGACCCA to CTATATTA, the “PBM E-score” value rises from -0.0652 to 0.276.

Going from CCTACCTC to CCCCCGTA, the “PBM E-score” value falls from -0.0462 to -0.292.

Compared with GTCGGGAA, CGGGCAAG is higher in “PBM E-score” value: -0.169 for the first, -0.114 for the second.

Going from TACTTCAA to CTACTGAA, the “PBM E-score” value falls from 0.261 to -0.00485.

Going from CCATATTA to GGCCTCTA, the “PBM E-score” value falls from 0.0603 to -0.274.

Compared with TCCATGGA, GAGATAGA is lower in “PBM E-score” value: 0.0431 for the first, 0.0347 for the second.

Compared with ATCAAGTG, AAATGCAC is higher in “PBM E-score” value: -0.0877 for the first, 0.0769 for the second.

First: TATGCCCA
Second: TAGTGTAA
The “PBM E-score” value of the first is lower: -0.107 for the first, 0.169 for the second.

Going from CCCATGTA to CGCGAGAC, the “PBM E-score” value falls from 0.00137 to -0.0976.

Compared with AGGCATGC, AAACCCGA is higher in “PBM E-score” value: 0.0551 for the first, 0.198 for the second.

Going from AAGGAAGA to ACCTGCTG, the “PBM E-score” value falls from 0.0224 to -0.0362.

First: AACTTCAG
Second: AGGAGTTC
The “PBM E-score” value of the first is lower: -0.0466 for the first, 0.0585 for the second.

First: CGCAAACC
Second: GTGATTGA
The “PBM E-score” value of the first is lower: -0.0996 for the first, 0.186 for the second.

First: GGTTGAAA
Second: AAGTGTAC
The “PBM E-score” value of the first is higher: 0.133 for the first, -0.164 for the second.

Going from CCTCTAAG to CTGGCCTC, the “PBM E-score” value rises from -0.212 to -0.0756.

Compared with GGGCGTAA, ACTCGACT is higher in “PBM E-score” value: -0.148 for the first, -0.0903 for the second.

Compared with GACTTCTA, AGGCAGAC is lower in “PBM E-score” value: -0.0229 for the first, -0.224 for the second.

Compared with AGTGAAAT, CCTAAGTC is lower in “PBM E-score” value: 0.0708 for the first, -0.156 for the second.

First: CCTGAACA
Second: GAGCCCAC
The “PBM E-score” value of the first is higher: -0.158 for the first, -0.234 for the second.

Going from ACGGTGGA to AATCTCCA, the “PBM E-score” value rises from 0.0642 to 0.0699.

First: CAAAGTAG
Second: CGGGGGAC
The “PBM E-score” value of the first is higher: -0.0204 for the first, -0.103 for the second.

First: ACTATAGG
Second: CCCTGAGC
The “PBM E-score” value of the first is lower: -0.172 for the first, -0.148 for the second.

Compared with AGCTTATA, ACTTCACC is lower in “PBM E-score” value: 0.0992 for the first, 0.0672 for the second.

Compared with ACCATCAG, CATTGGAA is higher in “PBM E-score” value: -0.188 for the first, 0.0951 for the second.

Compared with GGCGATAC, TCGCAAAA is higher in “PBM E-score” value: -0.0854 for the first, 0.0928 for the second.

Going from TCGCTCAA to TCGCGACA, the “PBM E-score” value falls from 0.0956 to -0.0571.

Compared with AAGCATGA, CTTACCGA is higher in “PBM E-score” value: 0.106 for the first, 0.123 for the second.

Compared with CCAGGGGA, CTGGGATA is higher in “PBM E-score” value: -0.196 for the first, 0.0289 for the second.

First: AATGATGA
Second: TCGTTTAA
The “PBM E-score” value of the first is lower: 0.12 for the first, 0.168 for the second.

Compared with AGAATTTA, AGCCACCA is lower in “PBM E-score” value: 0.202 for the first, -0.203 for the second.

First: ATATATAG
Second: TCTAATAA
The “PBM E-score” value of the first is higher: 0.329 for the first, 0.173 for the second.

First: ACGTATGC
Second: ATTGAGGA
The “PBM E-score” value of the first is lower: -0.0391 for the first, 0.0322 for the second.

Compared with AAGGGTGG, GTTCTTTA is higher in “PBM E-score” value: -0.249 for the first, 0.252 for the second.

Going from ACACAGTG to TAAGAACA, the “PBM E-score” value rises from 0.0181 to 0.221.

Compared with GATCAACC, AGCAACGA is lower in “PBM E-score” value: 0.0228 for the first, -0.153 for the second.

First: ACCCTGAA
Second: ATTCATGC
The “PBM E-score” value of the first is lower: -0.206 for the first, -0.0101 for the second.

First: GTTCGCTA
Second: GAGCAGGA
The “PBM E-score” value of the first is lower: -0.0747 for the first, 0.0159 for the second.

Compared with GGGGCACA, GGCAAGAA is higher in “PBM E-score” value: -0.346 for the first, -0.0169 for the second.

Compared with GATACGCA, ATAGGGAC is higher in “PBM E-score” value: -0.141 for the first, -0.138 for the second.

Going from AAAGCCTG to GCGTTGCA, the “PBM E-score” value rises from -0.12 to 0.0322.

Compared with TAGGCCTA, GCCTCGAA is higher in “PBM E-score” value: -0.182 for the first, 0.115 for the second.

Going from ACTGGAGG to AGATAGTG, the “PBM E-score” value rises from -0.0479 to 0.06.

Going from GCCGCGCC to GCTACCAA, the “PBM E-score” value rises from -0.197 to 0.0131.

First: ACTCTGGA
Second: CTGAATTC
The “PBM E-score” value of the first is higher: -0.0358 for the first, -0.102 for the second.

First: CCTAGAAG
Second: ATGTTCCA
The “PBM E-score” value of the first is lower: -0.162 for the first, -0.0194 for the second.

Going from AGGCTTCA to GCCAAGCC, the “PBM E-score” value rises from -0.131 to -0.0191.

Compared with CCACCACG, AACCTCAC is lower in “PBM E-score” value: -0.0414 for the first, -0.0998 for the second.

First: CCAGTCTC
Second: AATGTGAA
The “PBM E-score” value of the first is lower: -0.102 for the first, 0.246 for the second.

First: ACGGATTA
Second: TCGTACCA
The “PBM E-score” value of the first is higher: 0.0513 for the first, -0.0419 for the second.

First: ACTGCGCT
Second: ATATCATC
The “PBM E-score” value of the first is lower: -0.247 for the first, 0.18 for the second.

Compared with CTAAACCA, AGCTAACT is higher in “PBM E-score” value: 0.00733 for the first, 0.0552 for the second.

First: ACAGTATC
Second: CAAGATTC
The “PBM E-score” value of the first is lower: 0.0445 for the first, 0.235 for the second.

Compared with CTGCTTGA, ACGCTTGG is lower in “PBM E-score” value: -0.153 for the first, -0.249 for the second.

Compared with ATATATGC, AGATAGAC is lower in “PBM E-score” value: 0.0624 for the first, -0.144 for the second.
